Experimental data from PMC5700166.
The list shows a part of the results, in another mix than the full data. The list includes weakly bound sequences.

What was measured:
Experiment in all cases: protein-binding microarray (PBM)
Conditions in all cases: PBM: ~300 nM protein, 6 mM HEPES pH 7.8, 80 mM KCl, 0.5 mM EDTA, 0.5 mM EGTA, 6% glycerol, 35 ng/ul poly-dIdC, 1% milk, 1 h, room temperature; Ap Aiptasia and Nv Nematostella (sea anemones) / Co Capsaspora / Aq Amphimedon (sponge) / Dm Drosophila / Hu human; RHD is the Rel homology domain; high values mean tight binding; most listed sequences are background and not binding sites; double strand, one strand shown
[1] = molecular target: T1, GST-Ap-NF-kB RHD (UniProt A0A913YAJ5)
T1 sequence: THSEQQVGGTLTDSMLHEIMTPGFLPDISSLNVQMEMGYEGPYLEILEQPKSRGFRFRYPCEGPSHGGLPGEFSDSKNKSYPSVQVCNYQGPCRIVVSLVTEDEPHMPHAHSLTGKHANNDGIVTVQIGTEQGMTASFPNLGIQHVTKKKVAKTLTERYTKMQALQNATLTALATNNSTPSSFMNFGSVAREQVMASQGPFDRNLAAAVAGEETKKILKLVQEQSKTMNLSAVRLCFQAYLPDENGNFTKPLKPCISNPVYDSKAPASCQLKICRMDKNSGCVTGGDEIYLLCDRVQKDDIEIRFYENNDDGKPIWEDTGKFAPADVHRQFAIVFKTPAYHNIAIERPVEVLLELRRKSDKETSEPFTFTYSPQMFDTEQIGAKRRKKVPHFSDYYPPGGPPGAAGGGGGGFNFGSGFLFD

[2] = molecular target: T2, GST-Nv-NF-kB (Cys allele) (UniProt E5G601)
T2 sequence: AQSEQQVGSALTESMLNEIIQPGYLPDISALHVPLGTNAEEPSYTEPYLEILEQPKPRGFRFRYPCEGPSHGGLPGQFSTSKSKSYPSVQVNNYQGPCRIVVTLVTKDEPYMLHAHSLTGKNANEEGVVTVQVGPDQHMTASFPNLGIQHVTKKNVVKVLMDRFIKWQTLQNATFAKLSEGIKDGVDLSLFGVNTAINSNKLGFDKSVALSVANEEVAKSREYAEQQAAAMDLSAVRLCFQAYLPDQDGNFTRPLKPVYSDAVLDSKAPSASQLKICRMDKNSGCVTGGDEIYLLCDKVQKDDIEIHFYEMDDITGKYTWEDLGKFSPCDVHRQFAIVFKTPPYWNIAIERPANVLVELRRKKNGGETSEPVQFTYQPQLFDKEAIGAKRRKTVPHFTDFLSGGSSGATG

[3] = molecular target: T3, GST-Co-NF-kB (UniProt F1ARL5)
T3 sequence: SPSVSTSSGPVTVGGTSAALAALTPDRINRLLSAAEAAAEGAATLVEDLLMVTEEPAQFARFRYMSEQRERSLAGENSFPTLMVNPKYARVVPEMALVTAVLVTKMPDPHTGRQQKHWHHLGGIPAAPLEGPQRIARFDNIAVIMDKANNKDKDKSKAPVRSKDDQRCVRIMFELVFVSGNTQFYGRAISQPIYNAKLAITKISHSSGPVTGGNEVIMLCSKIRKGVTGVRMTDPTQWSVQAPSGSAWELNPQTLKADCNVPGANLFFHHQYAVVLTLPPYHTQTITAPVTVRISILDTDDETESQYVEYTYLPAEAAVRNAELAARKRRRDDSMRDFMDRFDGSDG

[4] = molecular target: T4, GST-Dm-Relish (UniProt Q94527)
T4 sequence: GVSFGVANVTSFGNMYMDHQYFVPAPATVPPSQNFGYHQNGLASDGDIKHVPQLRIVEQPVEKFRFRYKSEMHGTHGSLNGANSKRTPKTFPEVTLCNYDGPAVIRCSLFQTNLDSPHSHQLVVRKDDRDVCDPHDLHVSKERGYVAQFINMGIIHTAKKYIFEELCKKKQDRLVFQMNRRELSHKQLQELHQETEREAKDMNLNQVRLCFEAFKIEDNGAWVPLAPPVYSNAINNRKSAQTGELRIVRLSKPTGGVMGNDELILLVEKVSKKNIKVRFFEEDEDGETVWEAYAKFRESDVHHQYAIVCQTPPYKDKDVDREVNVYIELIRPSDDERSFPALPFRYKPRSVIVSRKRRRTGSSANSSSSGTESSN

[5] = molecular target: T5, GST-Aq-NF-kB (UniProt A9Y5G7)
T5 sequence: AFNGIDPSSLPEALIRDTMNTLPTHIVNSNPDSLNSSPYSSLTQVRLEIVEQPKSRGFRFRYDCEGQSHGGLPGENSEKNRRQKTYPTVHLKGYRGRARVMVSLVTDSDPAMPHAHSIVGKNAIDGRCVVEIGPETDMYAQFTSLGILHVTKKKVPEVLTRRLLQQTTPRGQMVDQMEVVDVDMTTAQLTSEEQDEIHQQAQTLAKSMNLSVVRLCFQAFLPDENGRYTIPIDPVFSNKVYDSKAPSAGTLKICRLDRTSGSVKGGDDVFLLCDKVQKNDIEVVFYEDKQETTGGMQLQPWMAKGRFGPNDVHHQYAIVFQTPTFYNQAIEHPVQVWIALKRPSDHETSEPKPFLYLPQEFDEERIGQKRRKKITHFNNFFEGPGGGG

Row | Sequence | binding signal [1] [z-score] | binding signal [2] [z-score] | binding signal [3] [z-score] | binding signal [4] [z-score] | binding signal [5] [z-score]
1 | CCGATTAACATCACGTAACAATATGATGTTAATCGGGTCTTGATTCGCTTGACGCTGCTG | 0.0576 | -0.0158 | -0.0709 | 0.0688 | -0.258
2 | CCGATTAACATCAAAATTCCATTTGATGTTAATCGGGTCTTGATTCGCTTGACGCTGCTG | -1.4 | 0.116 | -0.615 | 0.897 | 0.325
3 | CCGATTAACATCACGCAAACGCCTGATGTTAATCGGGTCTTGATTCGCTTGACGCTGCTG | -0.473 | -0.836 | -1.01 | -0.774 | -0.597
4 | CCGATTAACATCACGTGAATTCCTGATGTTAATCGGGTCTTGATTCGCTTGACGCTGCTG | 0.191 | -0.598 | 0.37 | 2.84 | 0.775
5 | CCGATTAACATCAGCAGTGTGCATGATGTTAATCGGGTCTTGATTCGCTTGACGCTGCTG | -0.555 | -0.148 | -0.0512 | 0.054 | -0.217
6 | CCGATTAACATCAGGAATTTCGATGATGTTAATCGGGTCTTGATTCGCTTGACGCTGCTG | 0.024 | 0.544 | -0.746 | 0.432 | 0.0404
7 | CCGATTAACATCAGCGGTTGCTGTGATGTTAATCGGGTCTTGATTCGCTTGACGCTGCTG | -0.467 | -0.441 | -0.501 | -0.243 | -0.355
8 | CCGATTAACATCAAATTTTCCACTGATGTTAATCGGGTCTTGATTCGCTTGACGCTGCTG | -0.147 | 0.224 | 0.462 | 1.2 | 0.542
9 | CCGATTAACATCAAGTCCAAGTCTGATGTTAATCGGGTCTTGATTCGCTTGACGCTGCTG | -0.397 | 0.105 | -0.0145 | -0.681 | -0.561
10 | CCGATTAACATCAGTCCAAAGCATGATGTTAATCGGGTCTTGATTCGCTTGACGCTGCTG | -0.323 | -0.341 | -0.377 | -0.727 | -0.232
11 | CCGATTAACATCATACGCATCTCTGATGTTAATCGGGTCTTGATTCGCTTGACGCTGCTG | -0.232 | -0.292 | -0.915 | -0.628 | -0.345
12 | CCGATTAACATCAGGTATCACATTGATGTTAATCGGGTCTTGATTCGCTTGACGCTGCTG | -0.423 | -0.727 | 0.462 | -0.278 | -0.451
13 | CCGATTAACATCATCGATGCGTCTGATGTTAATCGGGTCTTGATTCGCTTGACGCTGCTG | -0.299 | -0.607 | -1.64 | -0.607 | -0.7
14 | CCGATTAACATCACTCAACGGAATGATGTTAATCGGGTCTTGATTCGCTTGACGCTGCTG | -0.425 | -1.04 | -0.277 | -0.174 | -0.135
15 | CCGATTAACATCAGCAACTGGCCTGATGTTAATCGGGTCTTGATTCGCTTGACGCTGCTG | -0.392 | -0.681 | -0.552 | -0.627 | -0.721
16 | CCGATTAACATCATAGAACTCGATGATGTTAATCGGGTCTTGATTCGCTTGACGCTGCTG | -0.545 | -0.426 | -0.352 | -0.794 | -0.592
17 | CCGATTAACATCACGATCTCTGTTGATGTTAATCGGGTCTTGATTCGCTTGACGCTGCTG | -0.192 | -0.991 | -0.516 | -0.621 | -0.327
18 | CCGATTAACATCATAGTATAAGATGATGTTAATCGGGTCTTGATTCGCTTGACGCTGCTG | -0.494 | -0.59 | -0.277 | -0.487 | -0.203
19 | CCGATTAACATCAGCAAAATTCCTGATGTTAATCGGGTCTTGATTCGCTTGACGCTGCTG | -0.345 | -0.0749 | -0.779 | 0.903 | 1.04
20 | CCGATTAACATCATCAAGTGCAGTGATGTTAATCGGGTCTTGATTCGCTTGACGCTGCTG | -0.705 | 0.00254 | -0.437 | 0.119 | -0.268
21 | CCGATTAACATCAGTGGTAAAACTGATGTTAATCGGGTCTTGATTCGCTTGACGCTGCTG | -0.652 | -0.296 | -0.707 | -0.0978 | -0.447
22 | CCGATTAACATCAGGGCGTTCCATGATGTTAATCGGGTCTTGATTCGCTTGACGCTGCTG | 0.215 | 0.00426 | -1.18 | 0.175 | 0.537
23 | CCGATTAACATCACTGAAATTCCTGATGTTAATCGGGTCTTGATTCGCTTGACGCTGCTG | 0.248 | 0.462 | 0.104 | 0.553 | 0.585
24 | CCGATTAACATCAGAATTTCCACTGATGTTAATCGGGTCTTGATTCGCTTGACGCTGCTG | -0.0504 | -0.308 | -0.0916 | 0.545 | 0.954
25 | CCGATTAACATCACGGAATGGCCTGATGTTAATCGGGTCTTGATTCGCTTGACGCTGCTG | 0.0121 | -0.556 | 0.199 | 0.51 | 0.384
26 | CCGATTAACATCAGGAAATTATATGATGTTAATCGGGTCTTGATTCGCTTGACGCTGCTG | -0.267 | -0.239 | 0.594 | 0.0223 | 0.252
27 | CCGATTAACATCACAGTGATAGTTGATGTTAATCGGGTCTTGATTCGCTTGACGCTGCTG | -0.473 | -0.251 | -0.00438 | 0.00686 | -0.298
